Source: patent US9447134B2 (priority 2012, dated 2016)

Legend:
[1] = target: Ca. jejuni IMPDH (Campylobacter jejuni, UniProt Q0P9J4); assay: biochemical
Source text: FIG. 24 depicts for selected D, P, and Q Series compounds (i) data on inhibition of representative bacterial IMPDHs and (ii) antibacterial activity.

[2] = test system: T. gondii/CpIMPDH; conditions: for activity against T. gondii/CpIMPDH (in words): hTERT human foreskin fibroblast host cells

Ca. jejuni IMPDH, sequence (Q0P9J4 entry or part of it): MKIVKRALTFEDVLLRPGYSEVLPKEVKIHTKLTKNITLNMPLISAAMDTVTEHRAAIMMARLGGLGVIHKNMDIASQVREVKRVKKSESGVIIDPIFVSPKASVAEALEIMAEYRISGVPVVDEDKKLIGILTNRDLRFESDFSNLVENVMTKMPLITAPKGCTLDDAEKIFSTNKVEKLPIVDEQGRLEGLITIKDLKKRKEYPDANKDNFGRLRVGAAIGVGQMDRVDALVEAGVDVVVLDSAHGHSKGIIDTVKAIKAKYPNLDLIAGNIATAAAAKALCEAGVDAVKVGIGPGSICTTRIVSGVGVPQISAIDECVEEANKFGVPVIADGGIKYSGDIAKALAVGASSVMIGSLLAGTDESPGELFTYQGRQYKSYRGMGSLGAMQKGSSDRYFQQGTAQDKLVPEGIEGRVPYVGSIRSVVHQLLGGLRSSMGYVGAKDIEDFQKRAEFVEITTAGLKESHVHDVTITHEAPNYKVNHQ

| Compound | IC50 [1] [nM] | activity against T. gondii/CpIMPDH (in words) [2] | selectivity versus the wild-type strain [2] |
| --- | --- | --- | --- |
| Cn1nc(CC(=O)Nc2ccc(Br)c(C(F)(F)F)c2)c2ccccc2c1=O [Compound D45] | 250 | sub-micromolar activity |  |
| Cn1nc(CC(=O)Nc2ccc(Cl)c(F)c2)c2ccccc2c1=O [Compound D52] | 1100 |  |  |
| N-(6,7,8,9-tetrahydrodibenzo[b,d]furan-5-yl)-2-(3-methyl-4-oxo-3,4-dihydro-phthalazin-1-yl)acetamide [Compound D67] |  | sub-micromolar activity |  |
| Cn1nc(CC(=O)Nc2ccc(Cl)c(C(F)(F)F)c2)c2ccccc2c1=O [drawing 311] |  | sub-micromolar activity | > 30 |
| Cn1nc(CC(=O)Nc2ccc(Cl)c(C(F)(F)F)c2)c2ccccc2c1=O [Compound D48] |  | sub-micromolar activity | ≥ 30 |
| Cn1nc(CC(=O)Nc2ccc3oc4ccccc4c3c2)c2ccccc2c1=O [Compound D73, N-(dibenzo[b,d]furan-2-yl)-2-(3-methyl-4-oxo-3,4-dihydrophthalazin-1-yl)acetamide] |  | sub-micromolar activity |  |
